Results reported in a compilation of properties of binary mixtures (doi:10.1021/je700188w).
Some of these densities may be calculated back from excess volumes.

Assay: xn = mol fraction of the nth substance listed
Settings: 100 kPa

COS(=O)(=O)[O-].Cn1cc[n+](C)c1 + CO
mass density [kg/m3]
Settings | x2 = 0.1212 | x2 = 0.2015 | x2 = 0.322 | x2 = 0.4001 | x2 = 0.5642 | x2 = 0.6513 | x2 = 0.7745 | x2 = 0.8744 | x2 = 0.9405
313.15 K | 1306.7 | 1293.3 | 1272.4 | 1259.6 | – | – | 1099.7 | 995.7 | 897.4
318.15 K | 1303 | 1289.6 | – | 1256.2 | 1211 | 1173.6 | – | 991.3 | 892.8
323.15 K | 1298.6 | 1286.2 | 1265.8 | 1253.3 | 1207.3 | – | 1094.4 | 987.1 | 888.5
328.15 K | 1295.2 | – | 1261.6 | – | 1203.7 | 1166.8 | 1091 | 982.9 | –
333.15 K | 1292 | 1279 | – | 1244.8 | 1200.1 | – | 1087.3 | – | 879.4
